About 14,000 (4.5%) of roughly 310,000 compounds showed an effect of 50% or more. Effects have a minus sign here. Some of the results follow.
These molecules were tested against human ether-à-go-go-related gene (hERG) potassium channel (human, UniProt Q12809) (assay: primary screen, population patch clamp on CHO cells stably expressing hERG).
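Note: peak tail current of the secondary pulse compared with the same well before compound.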

Chain of human ether-à-go-go-related gene (hERG) potassium channel (Q12809 whole entry, looked up): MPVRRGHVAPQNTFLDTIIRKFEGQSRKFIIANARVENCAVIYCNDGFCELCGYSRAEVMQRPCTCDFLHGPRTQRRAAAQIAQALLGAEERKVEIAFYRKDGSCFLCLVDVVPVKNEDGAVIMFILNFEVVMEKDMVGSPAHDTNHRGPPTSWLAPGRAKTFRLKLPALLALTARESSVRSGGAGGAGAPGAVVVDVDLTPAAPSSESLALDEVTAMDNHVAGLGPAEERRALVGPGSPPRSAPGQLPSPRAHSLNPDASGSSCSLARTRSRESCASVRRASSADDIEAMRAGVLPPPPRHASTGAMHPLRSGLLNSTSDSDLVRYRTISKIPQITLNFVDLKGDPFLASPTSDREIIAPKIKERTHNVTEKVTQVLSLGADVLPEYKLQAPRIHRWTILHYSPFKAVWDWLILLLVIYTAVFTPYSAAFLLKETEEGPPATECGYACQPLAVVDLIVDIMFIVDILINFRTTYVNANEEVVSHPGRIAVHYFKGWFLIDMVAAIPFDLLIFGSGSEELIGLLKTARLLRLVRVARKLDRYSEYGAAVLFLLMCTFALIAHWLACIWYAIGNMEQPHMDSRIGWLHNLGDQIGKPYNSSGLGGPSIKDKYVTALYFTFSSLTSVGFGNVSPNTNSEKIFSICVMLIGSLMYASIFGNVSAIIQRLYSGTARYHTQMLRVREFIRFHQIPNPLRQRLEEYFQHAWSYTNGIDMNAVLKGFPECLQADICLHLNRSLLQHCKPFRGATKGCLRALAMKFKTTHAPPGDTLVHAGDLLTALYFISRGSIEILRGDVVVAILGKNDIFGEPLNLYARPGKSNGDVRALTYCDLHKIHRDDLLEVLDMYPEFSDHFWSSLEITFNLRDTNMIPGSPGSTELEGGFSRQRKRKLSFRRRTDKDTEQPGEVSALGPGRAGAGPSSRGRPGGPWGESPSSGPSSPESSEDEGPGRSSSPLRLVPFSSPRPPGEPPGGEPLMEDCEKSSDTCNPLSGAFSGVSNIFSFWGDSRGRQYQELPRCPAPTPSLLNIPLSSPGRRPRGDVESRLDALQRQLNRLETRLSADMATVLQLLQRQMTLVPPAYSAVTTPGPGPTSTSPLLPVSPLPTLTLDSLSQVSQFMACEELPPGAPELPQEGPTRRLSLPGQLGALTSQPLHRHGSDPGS

Compound | hERG current change (%, negative = inhibition) at 10uM [%]
CCCc1c(C)c(C#N)c2nc3ccccc3n2c1NCCCN1CCOCC1 | -44
CN(C(=O)C1CCC(=O)N(CCCN2CCCC2=O)C1)C(C1CC1)C1CC1 (centres unmarked) | 12.1
CC1(C)OC(=O)N(CC(=O)Nc2cccc(C(F)(F)F)c2)C1(C)O (centres unmarked) | 11.2
O=Cc1cn(Cc2ccc(F)cc2Cl)c2ccccc12 | 1.44
CCC(=O)Nc1cc(-c2nn(C)c(=O)c3ccccc23)ccc1N1CCOCC1 | -0.794
CCn1cc(S(=O)(=O)CC(=O)N2CCc3ccccc32)c2ccccc21 | -24.8
Oc1ccc(/C=N/NC(=S)Nc2cccnc2)c(O)c1 | 17.5
N/C(=N\OC(=O)N1CCOCC1)c1ccc(Cl)cc1 | 16.4
O=C(CCN1C(=O)/C(=C/c2ccccc2Cl)SC1=S)NC1CCS(=O)(=O)C1 (centres unmarked) | 14.1
O=C(c1ccccn1)C1CCCN(Cc2nc(Cc3cccc(F)c3)no2)C1 (centres unmarked) | -5.63
O=C(NC1=NCCS1)c1cccc(Br)c1 | 22.2
Cc1ccc(N2CCN(/N=C/c3c(C)nn(-c4ccccc4)c3Cl)CC2)cc1 | 7.33
CCN(CC)S(=O)(=O)c1ccc(OC)c(NC(=O)c2ccc(=O)[nH]c2)c1 | -15.2
COC(=O)CC(=O)c1ccc2c(c1)OCO2 | 4.48
COc1ccc(C(C)C)cc1S(=O)(=O)N1CCN(c2ccccc2)CC1 | 23.9
Cc1ccc(N(C(C)C(=O)Nc2cccc(N(C)S(C)(=O)=O)c2)S(C)(=O)=O)cc1 (centres unmarked) | 8.34
CC(=O)c1ccc(C(=O)N(CCN(C)C)c2nc3c(Cl)cccc3s2)cc1.Cl | -48.6
CC(=O)N1N=C(c2ccccc2)OC12CCCC2 | -0.718
Cn1c(SCC(=O)c2ccc(F)cc2)nnc1-c1ccccc1N | -1.7

Compound | hERG current change (%, negative = inhibition) at 10uM [%]
CCc1noc(C)c1C(=O)N1CCC(CCC(=O)Nc2cccc(C)c2)CC1 | -32.8
CCc1cc(=O)oc2cc(C)c(CN3CCCC(C)C3)c(O)c12 (centres unmarked) | -3.29
COC(=O)c1cc(Oc2ccc(C(=O)OC)cc2N)cc(C(=O)OC)c1 | 11.2
Cc1cccc(Nc2nnc(SC(C)C(=O)NC3CC3)s2)c1 (centres unmarked) | -6.43
CCOC(=O)/C=C/[C@H]1CC2(CCO1)SCCCS2 | -0.263
COc1ccc(NC(=O)Cc2c(Cl)cccc2Cl)cn1 | 8.15
CCC(Cc1ccccc1)NC(=O)CSc1ccsc1[N+](=O)[O-] (centres unmarked) | 7.03
CCN(CC)CCCN1C(=O)C(=O)/C(=C(/O)c2ccc3c(c2)OCCO3)C1c1ccco1 (centres unmarked) | -6.06
CN(Cc1ccccc1)CC(O)COc1ccc(CNCCOc2cccnc2)cc1 (centres unmarked) | 5.79
O=C(c1ccco1)N1CCN(c2ncccn2)CC1 | -18.2
O=C(Nc1ccc2c(c1)OCCO2)Nc1ccc2c(c1)OCO2 | 21.4
CC(OC(=O)c1cccnc1Cl)C(=O)Nc1ccc(S(N)(=O)=O)cc1 (centres unmarked) | 44.5
CCOC(=O)C1CCN(C(=O)/C=C/c2ccc3c(c2)OCO3)CC1 | 15
C[C@H]1CC[C@@]2(O[C@@H](CCO)C[C@H](O)[C@H]2O)O1 | 9.6
Cc1ccc(C(=O)NC(=S)Nc2ccc(NC(=O)c3cccc(Cl)c3)cc2)cc1 | 11.8
COc1ccc(-c2cc3c(=O)n(CC(=O)NCCN4CCCC4)nc(C)n3n2)cc1 | -30.2
CCOC(=O)N1CCN(C(=O)CSc2nnc(Cc3cccn3C)n2CCc2ccccc2)CC1 | 4.47
O=C(O)c1ccc(NS(=O)(=O)c2cccc(C(=O)Nc3cccc(C(=O)O)c3)c2)cc1 | 11.1
COc1ccc(CCN=C(NS(=O)(=O)c2ccc(Cl)cc2)c2ccccc2)cc1 | -37.5

Compound | hERG current change (%, negative = inhibition) at 10uM [%]
O=C(c1cc(COc2ccc3ncccc3c2)on1)N1CCCCCC1 | -7.67
Cc1noc(C)c1C(=O)Nc1cccnc1 | 12.3
COc1ccc(C2NC(=O)c3sc4nc(C)c(C(C)=O)c(-c5ccc(Cl)cc5)c4c3N2)cc1 (centres unmarked) | 5.17
Cc1ccc(C(=O)NC(=S)Nc2ccc(S(=O)(=O)N(C)c3ccccc3)cc2)cc1 | 22.6
O=C(Nc1ccc(N2CCOCC2)cc1)C1CCN(S(=O)(=O)c2ccc3c(c2)OCCO3)CC1 | 9.77
COC(=O)C(Cc1ccc(O)cc1)NC(=O)c1ccccc1OC (centres unmarked) | -4.83
CCOC(=O)[C@@H]1[C@H]2COc3ccccc3[C@@H]2N2C(=O)N(c3cccc(F)c3)C(=O)[C@]12C | -21.5
CCCCCN(C(=O)NC(=O)NCCCC)S(C)(=O)=O | -12.5
O=C(NC[P+](=O)O)OCc1ccccc1 | 11.6
Cc1cccc(C)c1NC(=O)C(NC(=O)c1ccccn1)c1ccccc1[N+](=O)[O-] (centres unmarked) | -3.43
CCn1c(=O)c(=O)[nH]c2cc(C(=O)NC3CCCc4ccccc43)ccc21 (centres unmarked) | 1.54
S=c1[nH]nc(-c2ccncc2)n1/N=C/C=C/c1ccco1 | 5.67
COc1ccc(OC)c(/C=C2\SC(N3CCCC(C)C3)=NC2=O)c1 (centres unmarked) | -17
CCC(C)NC(=O)C1CCC(=O)N1CCc1ccccc1 (centres unmarked) | 4.88
CCOC(=O)CSc1nnnn1-c1cc(OC)ccc1OC | 2.31
CCSC1=C(C#N)C2(CCCCC2)C2=C(CC(C)(C)CC2=O)N1 | 13
COc1ccc(-c2cnnn2-c2ccc(NC(=O)c3ccco3)cc2)cc1OC | -9.9
Cc1ccc(NC(=O)CN2C(=O)NC3(CCc4ccccc43)C2=O)cc1S(=O)(=O)N1CCCCC1 (centres unmarked) | 4.56

From paper PMC4336329 (PLoS ONE, 2015)
